Measurements: PubChem BioAssay AID686978 (National Center for Advancing Translational Sciences (NCATS), 2013)
Hit rate of the full screen: of about 420,000 compounds, about 64,000 (15%) were called active. Inconclusive means that the source gave no clear call. Such entries were picked first, then a sample of the others. Calls follow the shape of the dose curve; as a rule, active = well fitted inhibition curve with a large enough effect; inconclusive = small, poorly fitted or top-dose-only effect; inactive = flat fitted curve, though single readings scatter. Potencies of inconclusive entries are left out as doubtful fits.
% is scaled to controls: 0 for no effect and ±100 for the full control effect; potency is read from the fitted curve at half-maximal effect; tags tell the direction and shape of the fitted curve.

Assay: qHTS for Inhibitors of human tyrosyl-DNA phosphodiesterase 1 (TDP1): qHTS in cells in absence of CPT; also: nearly all actives have a fitted effect of over 55% in size
Conditions: DT40 Tdp1-/- hTDP1 cells, no CPT, ATP luminescence, 48 h; activity change, negative = growth inhibition: at 46.2 µM (top of the series) unless noted
Method in brief: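 A cellular qHTS used chicken DT40 cells lacking endogenous Tdp1 but carrying stably transfected human TDP1. Compounds were applied without camptothecin, and cell growth kinetics were judged by ATP-dependent luminescence after ≥48 hr.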
With `CN(C)/C=C(\C=O)c1ncc(C(F)(F)F)cc1Cl` the Potency was “inactive”.
For `CC(=O)Nc1ccc(S(=O)(=O)NCCSCc2c(Cl)cccc2Cl)cc1`, the Potency was inconclusive [inhibitor, partial curve].
With `O=C(/C=C/c1ccco1)NC(=S)Nc1cccc([N+](=O)[O-])c1` the Potency was active: 14.6 µM.
For `C=CCN1C(=O)c2cccc3c(N4CCCCC4)ccc(c23)C1=O`, the Potency was inconclusive [inhibitor, single point].
In the case of `O=S(=O)(NC1c2cccc3cccc(c23)C1Sc1ncccn1)c1ccc(Cl)cc1` (configuration not stated), the Potency is reported as inconclusive [inhibitor, single point].
With `CC(C)NC(=O)C(=O)Nc1ccc2c(c1)N(S(=O)(=O)c1cccs1)CCC2` the Potency was inconclusive [inhibitor, single point].
For `O=C(Nc1ccc(S(=O)(=O)Nc2cnc3ccccc3n2)cc1)c1ccc(Br)o1`, the Potency was inconclusive [inhibitor, single point].
For `CCOc1ccc(S(=O)(=O)N2CCC(C(=O)OC(C)C(=O)NC3CCCCC3C)CC2)cc1` (configuration not stated), the Potency was inconclusive [inhibitor, single point].
For `Oc1ccccc1Nc1nc(NCc2ccco2)c2ccccc2n1`, the Potency was active: 20.6 µM.
With `CNC(=O)C1CCC(Cn2c(=O)c3sccc3n(CC(=O)NCc3ccc(OC)cc3)c2=O)CC1` (configuration not stated) the Potency was “inactive”.
With `C[C@H]1CN([C@@H](C)CO)C(=O)CCCn2nncc2CO[C@@H]1CN(C)C(=O)Cc1ccccc1` the activity change, negative = growth inhibition was inconclusive: -27.1% [inhibitor].
With `COc1ccc(-c2cc(C(F)(F)F)n3ncc(C(=O)NCc4ccco4)c3n2)cc1` the Potency was inconclusive [inhibitor, full curve].
With `O=C(NCCc1ccccc1)c1ccc2c(c1)N(Cc1ccccc1)CCS2` the Potency was inconclusive [inhibitor, single point].
With `O=C(O)C1Cc2ccccc2CN1C(=O)COc1ccc(Cl)cc1Cl` (configuration not stated) the Potency was “inactive”.
With `O=C(Nc1c(F)cccc1F)c1ccc2c(c1)CCN2S(=O)(=O)c1ccccc1` the Potency was “inactive”.
For `COC(=O)[C@@]12C[C@@H](CC(=O)N3CCCCC3)C(=O)N(Cc3ccco3)C1=CCC(C)(C)C2`, the Potency was inconclusive [inhibitor, single point].
With `Oc1ccc(/C=N/N2CCCCC2)cc1O` the Potency was inconclusive [inhibitor, single point].
For `CCC(=O)Nc1ccc2nn(-c3ccc(F)cc3)nc2c1`, the Potency was “inactive”.
With `O=C1CCCc2ccccc2N1Cc1cccc(Cl)c1` the Potency was active: 9.2 µM.
In the case of `COc1ccc(-c2noc(CCC(=O)N3CCN(c4cccc(C)c4)CC3)n2)cc1`, the Potency is reported as active: 13 µM.
For `CCCCCN1C/C=C\C(c2ccc(OC)cc2)N(Cc2ccc(F)cc2)C(=O)C1` (configuration not stated), the Potency was inconclusive [inhibitor, single point].
In the case of `CC(C)(C)c1ccc(COn2c(=O)c(-c3ccco3)[n+]([O-])c3ccccc32)cc1`, the Potency is reported as “inactive”.
For `CCOC(=O)CNC(=O)N(C)[C@H]1C[C@H]2c3[nH]c4ccccc4c3CCN2C(=O)[C@H]1[C@H](C)O`, the Potency was “inactive”.
With `O=C(c1cccs1)N1CCCC(c2nc3c(nnn3Cc3ccccc3Cl)c(=O)[nH]2)C1` (configuration not stated) the Potency was active: 29.1 µM.
For `O=C(CN(Cc1ccccc1)S(=O)(=O)c1ccc(Br)cc1)NCC1CCCO1` (configuration not stated), the Potency was inconclusive [inhibitor, single point].
With `COc1ccc(C(C(=O)NC(C)(C)C)N(CCO)C(=O)CCC(=O)Nc2cc(C)on2)cc1` (configuration not stated) the Potency was “inactive”.
With `Fc1ccc(NCc2nnc(SCc3nnc(-c4ccccc4)o3)n2Cc2ccccc2)cc1` the Potency was inconclusive [inhibitor, single point].
For `C[C@H]1CN([C@@H](C)CO)C(=O)CCCn2nncc2CO[C@@H]1CN(C)S(=O)(=O)c1ccccc1`, the Potency was “inactive”.
In the case of `Cc1nnc(SCc2nnc(-c3ccc(Cl)cc3)o2)n1-c1ccccc1`, the Potency is reported as inconclusive [inhibitor, single point].
In the case of `CCOc1ccc2nc(NC(=O)C(CCSC)NS(=O)(=O)c3cccs3)sc2c1` (configuration not stated), the Potency is reported as inconclusive [inhibitor, full curve].
With `Cc1noc(C)c1-c1nccc(N2CCNCC2)n1` the Potency was “inactive”.
For `C/C(=N\NC(=O)C(=O)Nc1ccc(C)cc1)c1ccncc1`, the Potency was active: 9.2 µM.
With `Cc1ccc(Cl)cc1NC(=O)C1CCN(S(=O)(=O)c2cccc3nonc23)CC1` the Potency was “inactive”.
With `COc1cccc(Cn2c(=O)n(CCc3ccccc3)c(=O)c3c2c2cc(OC)ccc2n3C)c1` the Potency was “inactive”.
For `FC(F)Oc1ccc(/C=N/n2c(Cc3ccc(Br)cc3)n[nH]c2=S)cc1`, the Potency was inconclusive [inhibitor, single point].
In the case of `Cc1ncoc1C(=O)Nc1ccc(Oc2ccccc2)cc1`, the Potency is reported as “inactive”.
With `COc1ccc(NC(=O)c2c(NC(=O)c3ccncc3)sc3c2CCC(C(C)(C)C)C3)cc1` (configuration not stated) the Potency was inconclusive [inhibitor, single point].
For `Cc1cccc(C)c1NC(=O)CC(C)c1ccccc1` (configuration not stated), the Potency was “inactive”.
With `O=C(C[C@H]1C[C@H](C(=O)N2CCCCC2)[C@@]2(CCc3ccccc3)c3[nH]c4cc(-c5ccco5)ccc4c3CCN2C1=O)NCCC1=CCCCC1` the Potency was active: 18.4 µM.
With `COc1ccccc1NNC(=O)c1cc(C(C)(C)C)nn1Cc1ccccc1` the Potency was active: 23.1 µM.
With `C/C(=N/NC(=O)C1CCCN1C(=O)c1ccc([N+](=O)[O-])cc1)c1ccc(Br)cc1` (configuration not stated) the Potency was inconclusive [inhibitor, partial curve].
For `COC(=O)[C@@]1(Cc2ccc(F)cc2)[C@H]2c3cc(C(=O)N(C)C)n(Cc4ccsc4Br)c3C[C@H]2CN1C(=O)c1ccccc1`, the Potency was inconclusive [inhibitor, single point].
For `CCCCCN1CC(=O)N2C(C)c3[nH]c4ccccc4c3C[C@H]2C1=O` (some centres not stated), the activity change, negative = growth inhibition was inconclusive: -34.5% [inhibitor].
For `CC(=O)CCN1CCOCC1`, the Potency was inconclusive [inhibitor, single point].
With `N#Cc1ccc(C(=O)N2CCN(S(=O)(=O)c3ccc(Cl)s3)CC2)cc1` the Potency was inconclusive [inhibitor, single point].
For `COc1ccc(S(=O)(=O)N2CCN(C(=O)CC3CC4CCC3C4)CC2)cc1` (configuration not stated), the Potency was inconclusive [inhibitor, full curve, poor fit].
For `COc1ccc(CSC2=CS(=O)(=O)c3ccccc3N2)cc1`, the Potency was inconclusive [inhibitor, single point].
With `Cc1ccc(-c2nn(-c3cccc(F)c3)cc2CN2CCN(c3ccccn3)CC2)o1` the Potency was active: 23.1 µM.
With `C=CCOc1ccc(C2C(C#N)=C(N)N(Nc3ccccc3)C3=C2C(=O)CCC3)cc1OC` (configuration not stated) the Potency was active: 16.4 µM.
With `CCc1nc2ccc(C(=O)Nc3cccc(OCC(=O)N(C)C)c3)cn2c1N(CCN(C)C)CC1CC1` the Potency was “inactive”.
With `CC1(C)C(N(O)C(=O)Nc2ccc(Cl)cc2)N(c2ccc(Cl)cc2)C(=O)N1CC(=O)NN` (configuration not stated) the Potency was “inactive”.
For `O=c1[nH]c(CN2CCN(c3ccccc3O)CC2)nc2scc(-c3ccccc3Cl)c12`, the Potency was inconclusive [inhibitor, single point].
In the case of `Cc1ccc2c(C)c(C(=O)N(C)C(C)c3ccon3)oc2c1C` (configuration not stated), the Potency is reported as active: 16.4 µM.
For `O=C(Cn1ccn(-c2ccc(F)c(F)c2)c(=O)c1=O)NCCc1ccccc1`, the Potency was inconclusive [inhibitor, single point].
In the case of `NCCCNC(=S)NCCCN(Cc1ccc(Cl)cc1)c1ccc(Br)cn1`, the Potency is reported as inconclusive [inhibitor, single point].
For `COc1ccc(C(CCN2CCCC(C)C2)c2c(OC)cc(OC)c3c(-c4ccccc4)cc(=O)oc23)cc1` (configuration not stated), the Potency was active: 2.91 µM.
In the case of `CC(=O)Oc1cccc(N2C(=O)c3cccc4c([N+](=O)[O-])ccc(c34)C2=O)c1`, the Potency is reported as active: 2.91 µM.
With `CCCCNc1nc(Oc2ccc(=O)n(C)n2)nc(N2CCOCC2)n1` the Potency was “inactive”.
For `O=C1NC(=O)c2cc(NC(=O)C3CCCCC3)ccc21`, the Potency was “inactive”.
With `O=C1Nc2ccc(Cl)cc2/C1=C/C1CC=CCC1` (configuration not stated) the Potency was inconclusive [inhibitor, single point].
In the case of `O=C(Nc1ccc(N2CCOCC2)c(S(=O)(=O)Nc2ccccc2Cl)c1)c1ccc(F)cc1`, the Potency is reported as inconclusive [inhibitor, single point].
For `CCN1CCN(c2nc3sc4c(c3c3ncnn23)CC(C)CC4)CC1` (configuration not stated), the Potency was inconclusive [inhibitor, single point].
For `CC(C)(C)N=Cc1c(O)ccc2oc3c(c12)CCCC3`, the Potency was “inactive”.
In the case of `CN(C(=O)Cc1c(C(=O)O)n(C)c2ccccc12)c1ccc(F)cc1`, the Potency is reported as “inactive”.
With `Cc1csc(Nc2nc(N)c(C(=O)Nc3cc(Cl)ccc3F)o2)n1` the Potency was inconclusive [inhibitor, single point].
In the case of `Cc1ccc(C(=O)/C=C2\NCCNC2=O)cc1`, the Potency is reported as “inactive”.
For `S=C(c1ccc(OCc2ccccc2)cc1)N1CCCC1`, the Potency was inconclusive [inhibitor, single point].
For `Cc1noc(C)c1COC(=O)c1ccc(S(=O)(=O)N2CCCCC2)cc1`, the Potency was “inactive”.
With `Cc1ccnc(N2C(=O)CSC2c2ccc(Cl)cc2)c1` (configuration not stated) the activity change, negative = growth inhibition was inconclusive: -30.5% [inhibitor].
With `O=C(C1CCCCC1)N1C[C@@H](n2cc(-c3ccc(F)cc3)nn2)[C@H](O)C[C@@H]1c1ccccc1` the Potency was inconclusive [inhibitor, single point].
For `COc1ccc2nc(C3CCCCC3)nc(C3CCCCC3)c2c1`, the Potency was inconclusive [inhibitor, partial curve].
In the case of `CCN(C(=O)COC(=O)/C=C/c1ccccc1Cl)c1c(N)n(Cc2ccccc2)c(=O)[nH]c1=O`, the Potency is reported as inconclusive [inhibitor, single point].
